Experimental data from article PMC4336329 (PLoS ONE, 2015).
The campaign covered roughly 310,000 compounds. About 2,200 (0.71%) showed an effect of 50% or more. The effect is printed as a negative number. The list shows a part of the results.

Molecular target: human ether-à-go-go-related gene (hERG) potassium channel (human, UniProt Q12809)
Assay: primary screen, population patch clamp on CHO cells stably expressing hERG

Chain of human ether-à-go-go-related gene (hERG) potassium channel (Q12809 whole entry, looked up): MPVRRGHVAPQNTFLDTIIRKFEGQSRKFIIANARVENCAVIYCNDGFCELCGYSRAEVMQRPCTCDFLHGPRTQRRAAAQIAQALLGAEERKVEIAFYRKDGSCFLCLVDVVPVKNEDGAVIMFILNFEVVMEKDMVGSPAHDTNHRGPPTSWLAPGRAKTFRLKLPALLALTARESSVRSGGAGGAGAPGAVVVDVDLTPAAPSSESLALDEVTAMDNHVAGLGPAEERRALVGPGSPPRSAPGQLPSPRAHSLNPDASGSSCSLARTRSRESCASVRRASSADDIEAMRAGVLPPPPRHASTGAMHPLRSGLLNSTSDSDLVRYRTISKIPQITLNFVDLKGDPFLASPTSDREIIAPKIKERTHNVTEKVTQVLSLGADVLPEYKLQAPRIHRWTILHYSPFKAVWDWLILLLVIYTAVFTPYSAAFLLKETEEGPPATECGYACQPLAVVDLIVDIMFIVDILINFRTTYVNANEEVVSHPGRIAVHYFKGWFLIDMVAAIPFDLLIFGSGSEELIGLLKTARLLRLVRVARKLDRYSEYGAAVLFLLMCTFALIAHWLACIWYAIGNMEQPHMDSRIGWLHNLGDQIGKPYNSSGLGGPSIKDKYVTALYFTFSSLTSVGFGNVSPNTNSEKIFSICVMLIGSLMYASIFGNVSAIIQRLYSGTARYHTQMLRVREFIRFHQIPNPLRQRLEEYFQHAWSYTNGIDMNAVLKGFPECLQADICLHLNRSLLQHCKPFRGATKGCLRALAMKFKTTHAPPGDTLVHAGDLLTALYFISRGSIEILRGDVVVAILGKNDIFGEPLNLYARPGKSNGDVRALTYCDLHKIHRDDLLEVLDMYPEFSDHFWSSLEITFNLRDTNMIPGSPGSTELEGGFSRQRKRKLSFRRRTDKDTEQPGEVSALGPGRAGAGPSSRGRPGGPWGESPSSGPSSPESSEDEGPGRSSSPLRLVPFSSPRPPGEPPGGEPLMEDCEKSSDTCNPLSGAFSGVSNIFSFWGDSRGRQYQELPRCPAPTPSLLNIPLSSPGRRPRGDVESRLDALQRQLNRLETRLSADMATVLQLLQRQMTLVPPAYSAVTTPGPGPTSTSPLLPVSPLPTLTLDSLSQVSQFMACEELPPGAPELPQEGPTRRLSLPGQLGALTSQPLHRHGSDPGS

| SMILES | hERG current change (%, negative = inhibition) at 1uM |
| --- | --- |
| CC(C)Cc1nnc(NC(=O)CCC(=O)N2CCC3(CC2)OCCO3)s1 | 12.9% |
| CCCCNC(=O)Nc1ccnn1C1CCCCC1 | 14.6% |
| Nc1nnnn1CC(=O)N/N=C/c1ccc(-c2cccc(Cl)c2)o1 | 8.91% |
| CCCCC(=O)NC1(C(F)(F)F)C(=O)N(CC(C)C)C2=C1C(=O)CC(C)(C)C2 (stereo not shown) | 8.89% |
| COc1cc(/C=N/NC(=O)c2ccc(F)cc2)ccc1OC(=O)c1ccco1 | 8.79% |
| Cc1cc(CN2C(=O)c3ccccc3C2=O)on1 | 15.5% |
| COC(=O)c1nc(NC(=O)C(C)(C)C)n[nH]1 | 6.78% |
| CCCc1[nH]c2ccc(C#N)cc2c1CCC | 22.1% |
| C=CCSCC1Nc2cc(Cl)c(S(N)(=O)=O)cc2S(=O)(=O)N1 (stereo not shown) | 14.4% |
| CCn1c2ccccc2c2cc(NC(=O)CSc3nnc(-c4ccc(OC)cc4)n3N)ccc21 | -3.06% |
| Cc1ccc(OCCn2cc(C(=S)N3CCCC3)c3ccccc32)cc1C | 16.8% |
| COc1cccc(N2CCN(Cc3nc(N)nc(Nc4ccccc4OC)n3)CC2)c1 | 10.2% |
| O=C(c1cc2ccccc2oc1=O)N(Cc1ccc(F)cc1)C1CCS(=O)(=O)C1 (stereo not shown) | 2.7% |
| O=c1c2cc(NC(=S)NC3CC3)ccc2nc2n1CCCCC2 | 5.64% |
| C[C@]12CCC(=O)C=C1CC[C@@H]1C2[C@H](O)C[C@]2(C)C(=O)CCC12 (stereo partly shown) | 10.6% |
| COC(=O)c1ccccc1NC(=O)Cn1ccnc1 | 6.95% |
| COc1cccc(OC)c1OCCCOc1c(OC)cccc1OC | 9.95% |
| CC(C)CNS(=O)(=O)c1ccc(C(=O)Nc2ccc3c(c2)OCCO3)cc1 | 15.2% |
| Cc1c(NS(=O)(=O)c2cc(C(=O)NCc3ccco3)cc(Cl)c2Cl)c(=O)n(-c2ccccc2)n1C | 5.27% |
| CCOC(=O)C1=C(C)Nc2ccccc2N=C1NC(=O)c1cc(C)on1 | -3.04% |
| COc1ccc(S(=O)(=O)Nc2ccccc2OC)cc1NC(=O)c1cc2ccccc2oc1=O | -4.91% |
| Cc1cc(NC(=O)C2CC=CCC2C(=O)O)no1 (stereo not shown) | 1.58% |

| SMILES | hERG current change (%, negative = inhibition) at 1uM |
| --- | --- |
| CC(Nc1cccc(F)c1)C(=O)Nc1ccc(S(N)(=O)=O)cc1 (stereo not shown) | 10.5% |
| Cc1ccc(OCC(=O)O/N=C(\N)c2cccnc2)cc1 | 10.6% |
| O=C(NCCNc1ccc([N+](=O)[O-])cc1C(F)(F)F)c1ccccc1 | -2.76% |
| CN(Cc1ccc(F)cc1)C(=O)C(Cc1ccccc1)NC(=O)c1ccccc1 (stereo not shown) | 15.9% |
| CC(NC(=O)CN(c1ccc(Cl)cc1)S(C)(=O)=O)c1ccccc1 (stereo not shown) | 12.2% |
| COc1ccc2c(C)cc(SCC(=O)Nc3ncc(Cl)cc3Cl)nc2c1 | -1.19% |
| O=C(CN1C(=O)CSc2ccc(C(F)(F)F)cc21)Nc1ccccc1 | 12% |
| CC(=O)N1CCCN(C(=O)c2cc(COc3c(F)cccc3F)on2)CC1 | 6.37% |
| Cc1cccc(NC(=O)c2sc3ncn(CC(=O)N4CCN(c5ccccn5)CC4)c(=O)c3c2C)c1 | -13.3% |
| O=C(Nn1cnc2ccccc2c1=O)C1CCCCC1 | 7.64% |
| CN(C(=O)COC(=O)/C=C/c1cn(-c2ccccc2)nc1-c1ccc2c(c1)OCCO2)C1CCS(=O)(=O)C1 (stereo not shown) | 3.84% |
| N#Cc1c(N)nc2c(c1N)CC(=O)N2c1ccccc1-c1ccccc1 | 2.8% |
| COc1cccc(OCCCN2CCCCC2)c1 | -8.59% |
| O=C(Nc1ccccc1Cl)c1ccn[nH]1 | 4.75% |
| C[C@@H]1O[C@@H](O[C@H]2C[C@@H](O)[C@]3(CO)[C@H]4[C@H](O)C[C@]5(C)[C@@H](C6=CC(=O)OC6)CC[C@]5(O)[C@@H]4CC[C@]3(O)C2)[C@H](O)[C@H](O)[C@H]1O.O | 21.1% |
| O=C(NCCc1ccc(C(F)(F)F)cc1)C1CC(=O)N(Cc2ccccc2)C1 (stereo not shown) | 0.784% |
| CC(=O)N1N=C(c2cccs2)CC1c1ccc(C)o1 (stereo not shown) | 13.4% |
| CC1CCCN(CCS(=O)(=O)c2ccccc2)C1 (stereo not shown) | 5.66% |
| CC(C)NC(=O)NC(=O)COC(=O)c1cccc(S(=O)(=O)N2CCCCC2)c1 | 6.61% |
| COc1ccc(/C=C(/NC(=O)c2ccccc2)C(=O)N2CCCC2)cc1OC | 14.3% |
| COc1ccc(C(C)C)cc1S(=O)(=O)n1ccnc1C | 12.6% |
| COCc1c(Br)c(C)nc(OCC(=O)N/N=C/c2cc(C)n(-c3ccc([N+](=O)[O-])cc3)c2C)c1C#N | 3.11% |

| SMILES | hERG current change (%, negative = inhibition) at 1uM |
| --- | --- |
| COC(=O)c1ccc2c(=O)n(-c3ccccc3)c(SCN3C(=O)c4ccccc4C3=O)nc2c1 | 13.4% |
| Cc1ccc(C(=O)C(C)OC(=O)Cn2cnc3c2c(=O)n(C)c(=O)n3C)cc1 (stereo not shown) | 11.8% |
| COc1cc(CC(=O)OCC(=O)Nc2ccc3c(c2)OCCO3)cc(OC)c1OC | 11.4% |
| OCC1(CCOc2ccccc2)CCN(Cc2cn[nH]c2-c2ccc(F)cc2)CC1 | -46.3% |
| Cc1cccc(COc2ccccc2C(=O)N(C)CC(=O)Nc2cccc(F)c2)c1 | 5.16% |
| COCCCNC(=O)Cn1cnc2sc(C)c(S(=O)(=O)N3CCN(c4ncccn4)CC3)c2c1=O | 10.2% |
| COc1ccccc1NC(=O)COC(=O)C1CC1 | 6.59% |
| Cc1cc(C)cc(NC(=S)N2CCN(C(=O)c3ccco3)CC2)c1 | 6.33% |
| Cc1c(NS(=O)(=O)c2ccc3c(c2)c(=O)n(C)c(=O)n3C)c(=O)n(-c2ccccc2)n1C | -3.63% |
| Cc1ccc(C)c(N2CC(C(=O)OCC(=O)Nc3cc(C)on3)CC2=O)c1 (stereo not shown) | 11.6% |
| CCOc1cccc(-c2nnc(SCC(=O)Nc3cc(OC)cc(OC)c3)n2N)c1 | 6.27% |
| COc1ccc([C@H]2CC(=O)C=C(c3cc(C)ccc3OC)C2)cc1 | 12.5% |
| COC(=O)c1ccc(C(NC(=O)OCc2ccccc2)/C(F)=C/[C@@H](C)C(=O)NCc2ccc(-c3ccccc3)cc2)cc1 (stereo partly shown) | 12.6% |
| O=C(NCC1COc2ccccc2O1)C1CCCN(S(=O)(=O)c2cccc3cccnc23)C1 (stereo not shown) | 4.12% |
| NC(=O)c1cc(NC(=O)CCc2nc3ccccc3s2)cc(C(N)=O)c1 | 15.5% |
| COc1ccc(-c2ccc(=O)n(Cc3cccc(Cl)c3)n2)cc1 | 12.4% |
| Cc1ncccc1C(=O)N1CCCC(CCC(=O)N2CCN(c3ccccn3)CC2)C1 (stereo not shown) | 12.4% |
| CSc1nsc(SCC(=O)Nc2ccc3c(c2)OCCO3)n1 | 0.801% |
| Cc1ccc(NC(=O)C2CCCN2C(=O)c2cccs2)cc1C (stereo not shown) | 8.23% |
| Cc1ccccc1NC(=O)CSc1nc(N)c(C#N)c(-c2cccs2)c1C#N | 4.72% |
| CC(C)c1ccc(NC2CCCN(C(=O)c3cccc(N4CCNC4=O)c3)C2)cc1 (stereo not shown) | 15.8% |
| CCOC(=O)c1nnn(CC(=O)NC(=O)Nc2ccccc2)c1C(=O)OCC | 7.08% |

| SMILES | hERG current change (%, negative = inhibition) at 1uM |
| --- | --- |
| COc1ccc(-c2cc3onc(-c4c(Cl)cccc4Cl)c3c(=O)n2C)cc1 | 3.35% |
| COc1ccc(C(=O)Nc2ccccc2-c2nnn(CC(=O)NCc3ccco3)n2)cc1 | 13.4% |
| CCCCn1nnc(NC(=O)c2cc3ccccc3o2)n1 | 6.54% |
| Cc1cc(C)c2nc(-c3ccccn3)cc(C(=O)Nc3cc(C)on3)c2c1 | 1.53% |
| C=CCN=C1N[C@@H](c2ccccc2)C(C(=O)OC)=C(C)N1CC | 3.57% |
| C#CCNC(=O)C1=C[C@H](c2ccccc2)[C@@H](CCCO)[C@H](OCC)O1 | 15.7% |
| Cn1c(CNC(=O)c2ccco2)nnc1SCC(=O)Nc1c(F)cc(F)cc1Br | 15.1% |
| COc1ccc(CNCCSc2nnnn2C)c(OC)c1OC.Cl | 13.2% |
| COc1ccc(CC(=O)OCC(=O)c2ccc(S(=O)(=O)N3CCCCC3)cc2)cc1 | 9.91% |
| CC1(C)OC(=O)C(=NNc2ccccc2[N+](=O)[O-])C(=O)O1 | 3.74% |
| Cn1ncc(Cl)c1C(=O)N1CCN(c2cccc(Cl)c2)CC1 | -1.96% |
| COc1ccccc1OCc1nnc(SCCN2CCOCC2)o1.O=C(O)C(=O)O | 4.4% |
| CCc1ccc(-c2nc(SCC(=O)N3CCOCC3)n[nH]2)cc1 | -2.43% |
| Cn1cccc1/C=C(/C#N)c1ccc(F)cc1 | 6.81% |
| CCCCCN1C(C)=CC(=C(C#N)C#N)C=C1C | 22.4% |
| c1ccc(-c2nc(N3CCCC3)nc3ccccc23)cc1 | 14.7% |
| CC(C)C(=O)N1CCC(c2nc(-c3ccc(S(=O)(=O)N4CCN(C)CC4)cc3)no2)CC1 | 13.8% |
| CC(C)CNC(=O)COC(=O)CCC(=O)c1cccs1 | 15.7% |
| COc1ccccc1-n1cc(C(=O)NCC(=O)NCc2ccc(F)cc2)c2ccccc2c1=O | 9% |
